# From PubChem BioAssay AID651820 (National Center for Advancing Translational Sciences (NCATS), 2012)
# Where “and” joins values, the source holds several entries; their conditions need not be identical. Equal entries are not always repeated. Among all 340,000 compounds or so, about 12,000 (3.5%) were called active. This list was built around the results that the source calls inconclusive (neither active nor inactive); the mix of calls is not that of the screen. The call rests on the fitted dose curve; in most records, active means well fitted inhibition curve with a large enough effect; inconclusive means small, poorly fitted or top-dose-only effect, or another doubt; inactive means no such curve, though single readings can be large or run the other way. A potency beside an inconclusive call is a rough fit, not a confirmed value.
# Experiment: qHTS Assay for Inhibitors of Hepatitis C Virus (HCV)
# Settings: Huh7.5.1 HCVcc-Cre (HCVcc is cell-culture hepatitis C virus) infection, luciferase reporter, 44 h; activity change, negative = inhibition: at 41.8 µM (top of the series) unless noted
# How it was run: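 Cells (1,000/well) were plated 4 h before compound, then infected with HCVcc-Cre virus (~0.5 moi). After 44 h further culture, infection was read as luciferase luminescence following a 15 min substrate incubation at room temperature.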
# On the % scale 0 is the no-effect control and ±100 the full control effect; potency means the concentration at half of the fitted maximal effect; tags describe the fitted curve by direction and shape.
SMILES,Potency,"activity change, negative = inhibition"
COc1cccc(CNC(=O)c2ccccc2NC(=O)C2=C(C)OCCS2)c1OC,"inconclusive: 10 µM [inhibitor, partial curve]",
COc1ccc(NC(=O)C2C(c3ccccc3)C2(Cl)Cl)cc1 (stereo not given),"inconclusive: 31.6 µM [inhibitor, single point]",
CN(c1cccc(NC(=O)c2ccc(N(C)S(=O)(=O)c3ccccc3)cc2)c1)S(C)(=O)=O,active: 8.91 µM,
CN1CCC(N(C)C(=O)c2cc(-c3ccc(F)cc3)nc3ccccc23)CC1,"inconclusive: 11.2 µM [inhibitor, single point]",
O=C(Nc1cccc(F)c1)c1ccc(Cn2cc([N+](=O)[O-])cn2)o1,"inconclusive: 1 µM [inhibitor, full curve, poor fit]",
O=C(Nc1cccnc1)c1ccc(-c2ccccc2)cc1,"inconclusive: 22.4 µM [inhibitor, single point]",
Cc1cnc(CNC(=O)c2ccc3oc(C(C)C)nc3c2)[nH]1,,inactive: 3.68%
Cc1onc(-c2ccccc2Cl)c1C(=O)Nc1cccc2cccnc12,active: 7.08 µM,
Cc1ccc(O)c(NC(=S)NC(=O)Cc2ccc(Cl)cc2)c1,"inconclusive: 22.4 µM [inhibitor, single point]",
COc1ccc(CN(Cc2cc3cc4c(cc3[nH]c2=O)OCO4)C(=O)NC2CCCCC2)cc1,"inactive and inconclusive: 31.6 µM [inhibitor, single point]",
FC(F)(F)c1cccc(Nc2cc(-c3ccccc3)nc3ncnn23)c1,,inactive: 8.56%
CC(C)(C)OC(=O)NCCCCCc1nnc(SCc2c(F)cccc2Cl)o1,"inconclusive: 31.6 µM [inhibitor, single point]",
COc1ccc(NC(=O)NNC(=O)c2cc3ccccc3cc2O)cc1,,inactive: 0.695%
Cc1noc(C)c1CSCC(=O)Nc1nc2ccc(F)cc2s1,"inconclusive: 35.5 µM [inhibitor, partial curve]",
O=C(NCc1ccco1)c1ccc2c(c1)C(=O)c1ccccc1-2,"inconclusive: 31.6 µM [inhibitor, single point]",
Sc1oc(-c2ccccc2)cc1C=Nc1ccccc1,,inactive: -9%
O=C(OCc1ccccc1Cl)c1ccccc1C(=O)c1ccccc1,,inactive: 16.7%
COc1ccccc1N1CC(C(=O)Nc2nnc(SCC(=O)N3CCOCC3)s2)CC1=O (stereo not given),,inactive: 12.1%
CCOC(=O)N1CCN(c2c(N3CCc4ccccc4C3)c(=O)c2=O)CC1,,inactive: 15.6%
CC(C)N1CCN(c2ccc(OC[C@H]3CO[C@](Cn4cncn4)(c4ccc(Cl)cc4Cl)O3)cc2)CC1,"inconclusive: 12.6 µM [inhibitor, partial curve]",
COc1ccc(OC)c(CN2CCC(Cc3ccccc3)CC2)c1,,inactive: -25.4%
Brc1ccc(Nc2nc(-c3cccnc3)cs2)cc1,"inconclusive: 22.4 µM [inhibitor, single point]",
COc1ccc(S(=O)(=O)N2CCN(c3cc(-c4ccccc4)nc4ncnn34)CC2)cc1,active: 10 µM,

SMILES,Potency,"activity change, negative = inhibition"
CCn1c(N2CCN(C(=O)/C=C/c3ccccc3)CC2)nc2ccccc21,"inconclusive: 3.55 µM [inhibitor, single point]",
COc1cc(CNC(=O)c2ccc(Cn3nc(C)c(Cl)c3C)o2)cc(OC)c1,"inconclusive: 6.31 µM [inhibitor, partial curve]",
Cc1cc(NC(=O)CSc2nccn2-c2cccc(C)c2C)no1,active: 11.2 µM,
COc1ccc(-c2oc(=O)c3cc(OC)c(OC)cc3c2/C=C/c2ccc(OC(C)=O)cc2)cc1,"inconclusive: 31.6 µM [inhibitor, single point]",
Cn1c(=O)n(CCO)c(=O)c2c1nc(Br)n2Cc1ccccc1,"inconclusive: 11.2 µM [inhibitor, partial curve]",
Cc1ccc(S(=O)(=O)N2CCN(C(=O)COC(=O)c3ccccc3Cl)CC2)c(C)c1,"inconclusive: 31.6 µM [inhibitor, single point]",
O=C(CCl)N1c2ccccc2OCC1c1ccccc1 (stereo not given),,inactive: 10.2%
COc1ccccc1-c1cc(C(=O)N2CCN(S(=O)(=O)c3ccc(C)cc3)CC2)[nH]n1,"inconclusive: 31.6 µM [inhibitor, single point]",
O=C(Nc1ccc2oc(-c3ccccc3)nc2c1)c1cccs1,"inconclusive: 3.98 µM [inhibitor, full curve]",
COc1ccc(C)cc1NC(=O)CSc1ccc(-c2ccco2)nn1,active: 10 µM,
NC(=O)C1CCN(C(=O)c2ccc(NS(=O)(=O)c3ccc(Br)s3)cc2)CC1,,inactive: 16.7%
Cc1cc(-c2ccc(C)c(S(=O)(=O)N3CCN(c4ccccn4)CC3)c2)on1,"inconclusive: 22.4 µM [inhibitor, single point]",
Cc1cc(OC(=O)c2ccco2)c2c3c(c(=O)oc2c1)CCCC3,"inconclusive: 31.6 µM [inhibitor, single point]",
CNC(=O)CCn1nc(-c2ccccc2)c2ccccc2c1=O,,inactive: 2.4%
CCSC1=NC2(CCCCC2)Nc2sc3c(c21)CCCC3,"inconclusive: 31.6 µM [inhibitor, single point]",
CC(C)(C)n1nnnc1C(c1ccc(C(F)(F)F)cc1)N(Cc1ccccc1)Cc1ccco1 (stereo not given),"inconclusive: 31.6 µM [inhibitor, single point]",
Cc1ccc2[nH]c3c(c2c1)CN(C(=O)CN1CCN(Cc2ccc4c(c2)OCO4)CC1)CC3,"inconclusive: 31.6 µM [inhibitor, single point]",
Nc1cc2c([N+](=O)[O-])cccc2o1,"inconclusive: 14.1 µM [inhibitor, single point]",
CN(c1ccc(C(=O)Nc2nccs2)cc1)S(=O)(=O)c1ccccc1,"inconclusive: 31.6 µM [inhibitor, single point]",
CC(C)n1cc(-c2nc(C(=O)NN)cs2)c(=O)n(Cc2ccccc2)c1=O,"inconclusive: 31.6 µM [inhibitor, single point]",
O=C(NNc1ccc([N+](=O)[O-])cc1)c1ccccc1F,,inactive: 27.1%
O=C(COC(=O)c1ccccc1O)Nc1cc(S(=O)(=O)N2CCCCCC2)ccc1Cl,"inconclusive: 31.6 µM [inhibitor, single point]",
